Measurements from publication PMC12820563.
The other results are listed elsewhere or left out. The list includes weakly bound sequences.

Target: T1, MBP-FoxP3dN (UniProt Q99JB6)
T1 sequence: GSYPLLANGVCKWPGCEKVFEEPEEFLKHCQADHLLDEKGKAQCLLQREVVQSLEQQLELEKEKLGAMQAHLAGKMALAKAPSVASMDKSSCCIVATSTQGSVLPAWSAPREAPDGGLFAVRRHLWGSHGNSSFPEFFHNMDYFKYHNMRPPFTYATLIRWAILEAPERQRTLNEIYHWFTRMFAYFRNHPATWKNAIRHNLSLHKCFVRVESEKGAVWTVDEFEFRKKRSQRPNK
Test: PD-seq (MBP pull-down with sequencing)
Conditions: 20 mM Tris-HCl pH 7.5, 100 mM NaCl, 1.5 mM MgCl2, 0.4 uM protein, 0.1 uM dsDNA library, 30 min, room temperature, amylose pull-down; high values mean tight binding; double strand, one strand shown

**Q.** Which binding signal (RPM ratio (pull-down/input)) does the source give for “GATGATTGTTCTCCCAGCTGATGAATTTCCGCGTTCGAGTAAACAAATTTTCCTAATCTTTCTGTTCAAGCGCCATCTAC” here?
**A.** 1.45

**Q.** With “GATGATTGTTCTCCCAGCTGATGAATTATCTCACTCGAGTAAACAAATTTTCCTAATCTTTCTGTTCAAGCGCCATCTAC” as the sequence, how does the binding signal (RPM ratio (pull-down/input)) read?
**A.** 0.352

**Q.** How did the binding signal (RPM ratio (pull-down/input)) turn out when “GATGATTGTTCTCCCAGCTGATGAATTATCGGTTTCGAGTAAACAAATTTTCCTAATCTTTCTGTTCAAGCGCCATCTAC” was run?
**A.** 0.484

**Q.** With “GATGATTGTTCTCCCAGCTGATGAATTACTAATATCGAGTAAACAAATTTTCCTAATCTTTCTGTTCAAGCGCCATCTAC” as the sequence, how does the binding signal (RPM ratio (pull-down/input)) read?
**A.** 1.23

**Q.** “GATGATTGTTCTCCCAGCTGATGAATTATAGAAGTCGAGTAAACAAATTTTCCTAATCTTTCTGTTCAAGCGCCATCTAC” was tested. Which binding signal (RPM ratio (pull-down/input)) did it give?
**A.** 0.268

**Q.** For “GATGATTGTTCTCCCAGCTGATGAATTGAAGCACTCGAGTAAACAAATTTTCCTAATCTTTCTGTTCAAGCGCCATCTAC”, which binding signal (RPM ratio (pull-down/input)) is on record?
**A.** 0.499

**Q.** “GATGATTGTTCTCCCAGCTGATGAATTTGGTATCTCGAGTAAACAAATTTTCCTAATCTTTCTGTTCAAGCGCCATCTAC” was tested. Which binding signal (RPM ratio (pull-down/input)) did it give?
**A.** 3.76

**Q.** With “GATGATTGTTCTCCCAGCTGATGAATTACTGTATTCGAGTAAACAAATTTTCCTAATCTTTCTGTTCAAGCGCCATCTAC” as the sequence, how does the binding signal (RPM ratio (pull-down/input)) read?
**A.** 1.38

**Q.** “GATGATTGTTCTCCCAGCTGATGAATTACGAGCTTCGAGTAAACAAATTTTCCTAATCTTTCTGTTCAAGCGCCATCTAC” was tested. Which binding signal (RPM ratio (pull-down/input)) did it give?
**A.** 0.34

**Q.** With “GATGATTGTTCTCCCAGCTGATGAATTCATCTCCTCGAGTAAACAAATTTTCCTAATCTTTCTGTTCAAGCGCCATCTAC” as the sequence, how does the binding signal (RPM ratio (pull-down/input)) read?
**A.** 0.354

**Q.** Which binding signal (RPM ratio (pull-down/input)) does the source give for “GATGATTGTTCTCCCAGCTGATGAATTCGCCCTGTCGAGTAAACAAATTTTCCTAATCTTTCTGTTCAAGCGCCATCTAC” here?
**A.** 0.301

**Q.** How did the binding signal (RPM ratio (pull-down/input)) turn out when “GATGATTGTTCTCCCAGCTGATGAATTTCACTGTTCGAGTAAACAAATTTTCCTAATCTTTCTGTTCAAGCGCCATCTAC” was run?
**A.** 0.46

**Q.** Which binding signal (RPM ratio (pull-down/input)) does the source give for “GATGATTGTTCTCCCAGCTGATGAATTCCCTCTGTCGAGTAAACAAATTTTCCTAATCTTTCTGTTCAAGCGCCATCTAC” here?
**A.** 0.227

**Q.** For “GATGATTGTTCTCCCAGCTGATGAATTGACAGTTTCGAGTAAACAAATTTTCCTAATCTTTCTGTTCAAGCGCCATCTAC”, which binding signal (RPM ratio (pull-down/input)) is on record?
**A.** 0.499

**Q.** With “GATGATTGTTCTCCCAGCTGATGAATTCGCCAGATCGAGTAAACAAATTTTCCTAATCTTTCTGTTCAAGCGCCATCTAC” as the sequence, how does the binding signal (RPM ratio (pull-down/input)) read?
**A.** 0.213

**Q.** With “GATGATTGTTCTCCCAGCTGATGAATTATCCCAGTCGAGTAAACAAATTTTCCTAATCTTTCTGTTCAAGCGCCATCTAC” as the sequence, how does the binding signal (RPM ratio (pull-down/input)) read?
**A.** 0.212

**Q.** With “GATGATTGTTCTCCCAGCTGATGAATTAGGTAAATCGAGTAAACAAATTTTCCTAATCTTTCTGTTCAAGCGCCATCTAC” as the sequence, how does the binding signal (RPM ratio (pull-down/input)) read?
**A.** 0.365

**Q.** Which binding signal (RPM ratio (pull-down/input)) does the source give for “GATGATTGTTCTCCCAGCTGATGAATTATCGCCCTCGAGTAAACAAATTTTCCTAATCTTTCTGTTCAAGCGCCATCTAC” here?
**A.** 0.578

**Q.** For “GATGATTGTTCTCCCAGCTGATGAATTTTCTAAATCGAGTAAACAAATTTTCCTAATCTTTCTGTTCAAGCGCCATCTAC”, which binding signal (RPM ratio (pull-down/input)) is on record?
**A.** 0.227

**Q.** “GATGATTGTTCTCCCAGCTGATGAATTAGTCAGGTCGAGTAAACAAATTTTCCTAATCTTTCTGTTCAAGCGCCATCTAC” was tested. Which binding signal (RPM ratio (pull-down/input)) did it give?
**A.** 0.433

**Q.** Which binding signal (RPM ratio (pull-down/input)) does the source give for “GATGATTGTTCTCCCAGCTGATGAATTGGCGTTTTCGAGTAAACAAATTTTCCTAATCTTTCTGTTCAAGCGCCATCTAC” here?
**A.** 1.26

**Q.** Which binding signal (RPM ratio (pull-down/input)) does the source give for “GATGATTGTTCTCCCAGCTGATGAATTCTAACCTTCGAGTAAACAAATTTTCCTAATCTTTCTGTTCAAGCGCCATCTAC” here?
**A.** 0.305

**Q.** For “GATGATTGTTCTCCCAGCTGATGAATTGCAAGCCTCGAGTAAACAAATTTTCCTAATCTTTCTGTTCAAGCGCCATCTAC”, which binding signal (RPM ratio (pull-down/input)) is on record?
**A.** 0.869

**Q.** Which binding signal (RPM ratio (pull-down/input)) does the source give for “GATGATTGTTCTCCCAGCTGATGAATTGCACAGTTCGAGTAAACAAATTTTCCTAATCTTTCTGTTCAAGCGCCATCTAC” here?
**A.** 0.937

**Q.** For “GATGATTGTTCTCCCAGCTGATGAATTCGCTTACTCGAGTAAACAAATTTTCCTAATCTTTCTGTTCAAGCGCCATCTAC”, which binding signal (RPM ratio (pull-down/input)) is on record?
**A.** 3.27

**Q.** How did the binding signal (RPM ratio (pull-down/input)) turn out when “GATGATTGTTCTCCCAGCTGATGAATTACAAGGCTCGAGTAAACAAATTTTCCTAATCTTTCTGTTCAAGCGCCATCTAC” was run?
**A.** 0.469

**Q.** For “GATGATTGTTCTCCCAGCTGATGAATTGAGATGATCGAGTAAACAAATTTTCCTAATCTTTCTGTTCAAGCGCCATCTAC”, which binding signal (RPM ratio (pull-down/input)) is on record?
**A.** 0.508

**Q.** How did the binding signal (RPM ratio (pull-down/input)) turn out when “GATGATTGTTCTCCCAGCTGATGAATTAGGCAGATCGAGTAAACAAATTTTCCTAATCTTTCTGTTCAAGCGCCATCTAC” was run?
**A.** 0.432

**Q.** How did the binding signal (RPM ratio (pull-down/input)) turn out when “GATGATTGTTCTCCCAGCTGATGAATTTCGACCATCGAGTAAACAAATTTTCCTAATCTTTCTGTTCAAGCGCCATCTAC” was run?
**A.** 0.59

**Q.** How did the binding signal (RPM ratio (pull-down/input)) turn out when “GATGATTGTTCTCCCAGCTGATGAATTTTTCAAATCGAGTAAACAAATTTTCCTAATCTTTCTGTTCAAGCGCCATCTAC” was run?
**A.** 0.31

**Q.** How did the binding signal (RPM ratio (pull-down/input)) turn out when “GATGATTGTTCTCCCAGCTGATGAATTCCGATTATCGAGTAAACAAATTTTCCTAATCTTTCTGTTCAAGCGCCATCTAC” was run?
**A.** 1.35

**Q.** How did the binding signal (RPM ratio (pull-down/input)) turn out when “GATGATTGTTCTCCCAGCTGATGAATTCTCTCAGTCGAGTAAACAAATTTTCCTAATCTTTCTGTTCAAGCGCCATCTAC” was run?
**A.** 0.198

**Q.** For “GATGATTGTTCTCCCAGCTGATGAATTGAGCGTCTCGAGTAAACAAATTTTCCTAATCTTTCTGTTCAAGCGCCATCTAC”, which binding signal (RPM ratio (pull-down/input)) is on record?
**A.** 3.37

**Q.** For “GATGATTGTTCTCCCAGCTGATGAATTCTGGACATCGAGTAAACAAATTTTCCTAATCTTTCTGTTCAAGCGCCATCTAC”, which binding signal (RPM ratio (pull-down/input)) is on record?
**A.** 0.357

**Q.** Which binding signal (RPM ratio (pull-down/input)) does the source give for “GATGATTGTTCTCCCAGCTGATGAATTCAATGCTTCGAGTAAACAAATTTTCCTAATCTTTCTGTTCAAGCGCCATCTAC” here?
**A.** 0.976

**Q.** “GATGATTGTTCTCCCAGCTGATGAATTTGGTGTGTCGAGTAAACAAATTTTCCTAATCTTTCTGTTCAAGCGCCATCTAC” was tested. Which binding signal (RPM ratio (pull-down/input)) did it give?
**A.** 3.91

**Q.** Which binding signal (RPM ratio (pull-down/input)) does the source give for “GATGATTGTTCTCCCAGCTGATGAATTTTAACTGTCGAGTAAACAAATTTTCCTAATCTTTCTGTTCAAGCGCCATCTAC” here?
**A.** 0.348

**Q.** For “GATGATTGTTCTCCCAGCTGATGAATTTGAGTATTCGAGTAAACAAATTTTCCTAATCTTTCTGTTCAAGCGCCATCTAC”, which binding signal (RPM ratio (pull-down/input)) is on record?
**A.** 1.53

**Q.** With “GATGATTGTTCTCCCAGCTGATGAATTTACTTCATCGAGTAAACAAATTTTCCTAATCTTTCTGTTCAAGCGCCATCTAC” as the sequence, how does the binding signal (RPM ratio (pull-down/input)) read?
**A.** 0.703

**Q.** Which binding signal (RPM ratio (pull-down/input)) does the source give for “GATGATTGTTCTCCCAGCTGATGAATTATTGACGTCGAGTAAACAAATTTTCCTAATCTTTCTGTTCAAGCGCCATCTAC” here?
**A.** 1.47
